# Source: a collection of fitness landscapes (doi:10.1126/science.1257360)
# The other results are listed elsewhere or left out.
# B1: PhoQ; a variant is named by its letters at X, in order, P23837 (parent)
# chain: MKKLLRLFFPLSLRVRFLLATAAVVLVLSLAYGMVALIGYSVSFDKTTFRLLRGESNLFYTLAKWENNKLHVELPENIDKQSPTMTLIYDENGQLLWAQRDVPWLMKMIQPDWLKSNGFHEIEADVNDTSLLLSGDHSIQQQLQEVREDDDDAEMTHSVAVNVYPATSRMPKLTIVVVDTIPVELKSSYMVWSWFIYVLSANLLLVIPLLWVAAWWSLRPIEALAKEVRELEEHNRELLNPATTRELTSLVRNLNRLLKSERERYDKYRTTLTDLTHSLKTPLXXLQXXLRSLRSEKMSVSDAEPVMLEQISRISQQIGYYLHRASMRGGTLLSRELHPVAPLLDNLTSALNKVYQRKGVNISLDISPEISFVGEQNDFVEVMGNVLDNACKYCLEFVEISARQTDEHLYIVVEDDGPGIPLSKREVIFDRGQRVDTLRPGQGVGLAVAREITEQYEGKIVAGESMLGGARMEVIFGRQHSAPKDE
# Variants of: B1
# Assay: enrichment ratio after two sorts for PhoP signalling (ratio (wild type AVST 3.29)); higher = more functional
# Conditions: with PhoP (E. coli)
row,Variant,enrichment ratio
1,DEYF,≤ 0.25
2,HWKD,≤ 0.25
3,RIYK,≤ 0.25
4,RGGH,≤ 0.25
5,YIPI,≤ 0.25
6,FPKQ,≤ 0.25
7,KACN,≤ 0.25
8,EDLI,≤ 0.25
9,YWCE,≤ 0.25
10,PETK,≤ 0.25
11,LDEN,≤ 0.25
12,NNIL,≤ 0.25
13,APSA,≤ 0.25
14,NGYS,≤ 0.25
15,PIEK,≤ 0.25
16,WCHK,≤ 0.25
17,HAHR,≤ 0.25
18,YIWQ,≤ 0.25
19,RYFH,≤ 0.25
20,IQGS,≤ 0.25
21,GGFK,≤ 0.25
22,YRKM,≤ 0.25
23,YRPA,≤ 0.25
24,SFVS,≤ 0.25
25,LADV,≤ 0.25

row,Variant,enrichment ratio
1,NHEK,≤ 0.25
2,KYAM,≤ 0.25
3,HSQA,≤ 0.25
4,LPSF,≤ 0.25
5,KHAK,≤ 0.25
6,SYRI,≤ 0.25
7,ICFA,≤ 0.25
8,VACP,≤ 0.25
9,VMFG,≤ 0.25
10,FLSC,≤ 0.25
11,HQFR,≤ 0.25
12,KSYW,≤ 0.25
13,QSVI,≤ 0.25
14,KPAC,≤ 0.25
15,TYDM,≤ 0.25
16,WPHC,≤ 0.25
17,EQTH,≤ 0.25
18,RIEW,≤ 0.25
19,SMCG,5.57
20,TTWV,1.9
21,NGDL,≤ 0.25
22,IHIQ,≤ 0.25
23,EQVQ,≤ 0.25
24,MVTT,≤ 0.25
25,YLYR,≤ 0.25

row,Variant,enrichment ratio
1,GMIH,≤ 0.25
2,FIKY,≤ 0.25
3,WRAP,≤ 0.25
4,GAPF,0.621
5,WTWK,≤ 0.25
6,RWMS,≤ 0.25
7,GTPC,≤ 0.25
8,MADM,≤ 0.25
9,GEAK,≤ 0.25
10,WLHR,≤ 0.25
11,SPPC,≤ 0.25
12,WSDM,≤ 0.25
13,HQWR,≤ 0.25
14,NTDI,≤ 0.25
15,NPLC,≤ 0.25
16,NDFH,≤ 0.25
17,TEMN,0.333
18,MRHK,≤ 0.25
19,YQVK,≤ 0.25
20,SDWK,≤ 0.25
21,WHAP,≤ 0.25
22,TKWC,≤ 0.25
23,YLHI,≤ 0.25
24,RDPP,≤ 0.25
25,LHDH,≤ 0.25

row,Variant,enrichment ratio
1,FFFG,≤ 0.25
2,NMHV,≤ 0.25
3,DTAL,≤ 0.25
4,SDDR,≤ 0.25
5,ELPI,≤ 0.25
6,PWKV,≤ 0.25
7,SMMP,≤ 0.25
8,MAYP,≤ 0.25
9,LNTM,≤ 0.25
10,DGNL,≤ 0.25
11,AFRF,≤ 0.25
12,MFQH,≤ 0.25
13,WFHG,≤ 0.25
14,DCYK,≤ 0.25
15,KTHH,≤ 0.25
16,EDNG,≤ 0.25
17,PAKV,≤ 0.25
18,ACRF,7.81
19,TVWD,≤ 0.25
20,KAAH,≤ 0.25
21,TMDA,≤ 0.25
22,DKAM,≤ 0.25
23,YQWK,≤ 0.25
24,GQCW,≤ 0.25
25,YLGG,≤ 0.25

row,Variant,enrichment ratio
1,NERV,≤ 0.25
2,SALN,11.9
3,FQIQ,≤ 0.25
4,HVKF,≤ 0.25
5,HTYR,≤ 0.25
6,FNLV,2.75
7,AHER,≤ 0.25
8,VNGM,7.04
9,QMQN,≤ 0.25
10,QGGL,7.49
11,FFIM,≤ 0.25
12,QNFV,≤ 0.25
13,SVMA,7.62
14,FHHT,≤ 0.25
15,YNVF,≤ 0.25
16,DAMQ,≤ 0.25
17,YFGH,≤ 0.25
18,MYFT,≤ 0.25
19,QRNH,≤ 0.25
20,MVNS,≤ 0.25
21,DSTV,≤ 0.25
22,PSWS,≤ 0.25
23,RLYG,≤ 0.25
24,YQIA,≤ 0.25
25,SWTV,≤ 0.25

row,Variant,enrichment ratio
1,THCC,3.84
2,TVCA,14.5
3,KCYW,≤ 0.25
4,HAPQ,≤ 0.25
5,YRCV,≤ 0.25
6,RHDA,≤ 0.25
7,GSEW,≤ 0.25
8,SEKW,≤ 0.25
9,HWWH,≤ 0.25
10,RWHK,≤ 0.25
11,GRWH,≤ 0.25
12,AIAK,≤ 0.25
13,DDMF,≤ 0.25
14,LMQE,≤ 0.25
15,NNGE,≤ 0.25
16,LNVR,≤ 0.25
17,QRSF,≤ 0.25
18,SCAD,≤ 0.25
19,ASVV,14.5
20,HVLT,≤ 0.25
21,PTLQ,≤ 0.25
22,WSSV,≤ 0.25
23,TKYP,≤ 0.25
24,TKQI,17.5
25,VWNR,≤ 0.25

row,Variant,enrichment ratio
1,AMAN,0.326
2,SFVV,≤ 0.25
3,LGRK,≤ 0.25
4,TPLY,≤ 0.25
5,GCTG,9.76
6,MIYS,5.12
7,LQTE,≤ 0.25
8,PHWP,≤ 0.25
9,HLAV,≤ 0.25
10,YRAE,≤ 0.25
11,NHCK,≤ 0.25
12,YTLS,4.88
13,NEYK,≤ 0.25
14,VFTF,≤ 0.25
15,LACI,≤ 0.25
16,WEMH,≤ 0.25
17,WEQQ,≤ 0.25
18,DNKK,≤ 0.25
19,PLKS,≤ 0.25
20,YSGS,≤ 0.25
21,WRWV,≤ 0.25
22,HCDM,≤ 0.25
23,LYTC,≤ 0.25
24,KPCV,≤ 0.25
25,FALQ,7.48

row,Variant,enrichment ratio
1,TSVK,≤ 0.25
2,PMWM,≤ 0.25
3,NIAC,≤ 0.25
4,HHPA,≤ 0.25
5,AYPG,≤ 0.25
6,NHLN,≤ 0.25
7,WMHL,≤ 0.25
8,RWTI,≤ 0.25
9,HEKL,≤ 0.25
10,NYRF,0.803
11,MLQK,≤ 0.25
12,EFGG,≤ 0.25
13,TIHQ,1.2
14,GLHR,≤ 0.25
15,ACAS,7.49
16,DPVL,≤ 0.25
17,AYMK,≤ 0.25
18,RRIA,≤ 0.25
19,VNIM,≤ 0.25
20,FMDT,≤ 0.25
